# Laboratory results: the supplement of paper PMC3334620
# In all, about 33,000 sequences were measured (“E-score (-0.5 to 0.5)”: median about -0.043, highest 2% from about 0.37 on). The list shows a part of the results.
# Biological target: T1, Upc2 (UniProt Q12151)
# T1 sequence: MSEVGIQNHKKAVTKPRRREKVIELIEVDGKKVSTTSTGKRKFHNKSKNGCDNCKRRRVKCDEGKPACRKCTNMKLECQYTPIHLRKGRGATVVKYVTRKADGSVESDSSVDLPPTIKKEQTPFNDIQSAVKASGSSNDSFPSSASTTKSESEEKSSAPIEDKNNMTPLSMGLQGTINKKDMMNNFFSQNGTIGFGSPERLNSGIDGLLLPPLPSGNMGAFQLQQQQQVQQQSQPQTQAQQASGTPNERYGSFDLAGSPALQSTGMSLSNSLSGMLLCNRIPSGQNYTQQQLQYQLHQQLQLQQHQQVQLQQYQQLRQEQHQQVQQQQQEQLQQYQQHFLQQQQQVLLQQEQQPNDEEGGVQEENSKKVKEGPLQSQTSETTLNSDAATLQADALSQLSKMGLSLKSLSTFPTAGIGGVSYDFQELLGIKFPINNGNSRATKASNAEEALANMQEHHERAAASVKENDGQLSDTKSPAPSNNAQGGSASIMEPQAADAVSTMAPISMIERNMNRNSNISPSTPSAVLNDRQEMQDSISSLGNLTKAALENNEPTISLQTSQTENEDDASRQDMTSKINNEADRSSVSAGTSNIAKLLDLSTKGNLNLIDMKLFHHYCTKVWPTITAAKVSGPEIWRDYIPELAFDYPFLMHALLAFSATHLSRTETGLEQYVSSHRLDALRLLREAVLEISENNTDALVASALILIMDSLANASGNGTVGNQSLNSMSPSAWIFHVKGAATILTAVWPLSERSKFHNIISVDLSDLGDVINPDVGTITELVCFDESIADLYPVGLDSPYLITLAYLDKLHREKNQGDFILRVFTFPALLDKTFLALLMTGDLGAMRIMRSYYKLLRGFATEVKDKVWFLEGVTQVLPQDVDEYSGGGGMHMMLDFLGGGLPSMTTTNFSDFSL
# Assay: PBM E-score (8-mer binding enrichment) (E-score (-0.5 to 0.5)); higher = stronger / more preferred TF binding; most listed sequences are background and not binding sites
# Conditions: protein concentration: 200 nM; construct: GST-full length
# Outline: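 Yeast transcription factors, full-length or as DNA-binding domains, were expressed with a GST tag using PURExpress in vitro transcription/translation. At about 100-200 nM they were applied to universal all-10-mer Agilent arrays, double-stranded by primer extension on fresh or once-stripped slides. Fluorescent anti-GST detected bound protein, and masliner normalised the scans. E-scores for ungapped eight-base words, pooled with reverse complements, came from the Universal PBM Analysis Suite.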
row,Sequence,PBM E-score
1,AATGACCC,-0.157
2,AAACAGTA,0.116
3,GCATATGA,0.0441
4,AATGGGCG,-0.0334
5,AAGAGTTA,-0.0945
6,CGAGCCTA,0.146
7,GTCACCAA,-0.183
8,AATGGGGA,-0.0507
9,TGGGGGAA,-0.277
10,CCACGGTA,-0.099
11,ACGCGCTG,0.0918
12,GACACAAC,-0.112
13,AGCTCGTG,0.107
14,GCCTCCAC,-0.0944
15,ACCGATCC,-0.0521
16,CTGCACGA,0.102
17,AAACGTTT,0.281
18,CCTTTAGC,-0.00828
19,CATACCGC,0.00223
20,CTGTGCCC,-0.219
21,AGTGTTCA,-0.2
22,GAGGAGAC,-0.108
23,ACCCGTCC,-0.303
24,TCCTAGAA,-0.105
25,ATAGGGCC,-0.167

row,Sequence,PBM E-score
1,TCCGGGCA,0.161
2,CCGAGTTC,0.126
3,CCTCGATC,0.0193
4,CGATACGC,0.267
5,GAAACCAA,-0.176
6,AAGCGCGC,0.152
7,ACGTGCTG,0.0659
8,AGGGTTAT,-0.156
9,CCATGAGA,-0.131
10,GCTATGTA,-0.143
11,AATATGGC,-0.0605
12,AGTGCACA,0.0223
13,CAAAATGC,-0.0081
14,AGCCTGTC,0.0666
15,ATTCTACA,-0.111
16,AGAGGGCC,-0.0273
17,AAATTGGG,0.00764
18,TACTTAGA,0.00361
19,ACCAGGCA,-0.248
20,CTAACGCC,0.0311
21,GTGGGATA,0.0222
22,ATCAGTGG,-0.214
23,ACATTGGG,-0.0677
24,TTGATCAA,0.0218
25,ACGGACGA,0.0286

row,Sequence,PBM E-score
1,CAGTAACA,-0.0459
2,CCAAGCCC,-0.0688
3,GTTGCGGA,0.0539
4,CTTTTATA,0.0638
5,TACAACCA,-0.0982
6,ACGAATCC,0.335
7,AGCTCTCC,-0.142
8,CCGCAGTC,0.0832
9,CCTTACAG,-0.114
10,AGAGAGCC,-0.133
11,ATGTTTTA,0.0561
12,AGCATCTG,-0.0337
13,TAACCTGA,0.0333
14,AATGGCGG,-0.25
15,CTCAAACC,-0.177
16,ATGCTGCG,-0.176
17,CACAGTAG,0.136
18,CCATCTTA,0.0595
19,CGAGGGAG,0.0244
20,ACTAGTTG,-0.244
21,GTACAGAC,0.239
22,AATCGGTC,0.0916
23,CCCTCTGC,-0.211
24,CCGATACA,0.159
25,ATGTAGAG,-0.1

row,Sequence,PBM E-score
1,ATCCATCG,0.166
2,CCCTCTAG,-0.247
3,CACAATGA,-0.0947
4,CAAAATTG,-0.022
5,AAGTCTGG,-0.0137
6,ATCATATG,-0.0228
7,CAGCAGCA,-0.132
8,AGTCTGCA,-0.153
9,GATAACGA,0.17
10,GACTCGCA,-0.0142
11,TAGGGGCA,-0.154
12,CGGATGAA,0.0727
13,CTTTAAAC,0.182
14,GCTCTTCA,-0.134
15,CATACTCA,-0.0484
16,AACCCGGC,0.145
17,AGTCGGGA,0.0265
18,GACTGCGC,-0.0278
19,CCATAGCA,-0.372
20,ATAAAACA,0.13
21,ACCTCGTA,0.462
22,CGCCACAC,-0.0158
23,GCAGGACA,-0.103
24,CCTCGCTA,0.22
25,CTGTTACA,-0.0866

row,Sequence,PBM E-score
1,ATATAAGA,0.22
2,ACCCGTTA,0.277
3,AAATAAGA,0.0703
4,AAGCGCTG,0.0818
5,CTCAAGGA,-0.354
6,TCAGCCGA,-0.0752
7,ACCCATAG,-0.228
8,AAGACCTC,-0.232
9,AGTGATAA,-0.004
10,AAGATTCG,0.17
11,GCTTAAGA,0.114
12,AAAGCAAG,0.133
13,AGCTAACG,0.163
14,CAATGCTA,-0.0867
15,CGTTTGCA,0.395
16,CCGCTCGC,0.113
17,CAAGGAAC,0.121
18,AGGCCAAA,-0.0735
19,CTGTCGAA,-0.181
20,CTTCCAAA,-0.0564
21,CGGAGCTC,-0.124
22,AACAAATG,0.0774
23,CCTTTTAC,0.207
24,ACTTAGAT,0.139
25,GGACATAC,0.2

row,Sequence,PBM E-score
1,ATGCAGAC,-0.0838
2,TCAGGCAA,-0.146
3,CCCATGAA,-0.193
4,CAGCTAGA,-0.0195
5,AACGTTTG,0.157
6,CATAGAAC,-0.157
7,AGATAACA,-0.175
8,GTGCTCTA,-0.191
9,CCCGCGAA,-0.0517
10,ATCGTAAG,0.354
11,ACTGCCGC,-0.14
12,AGTAAAAC,0.0433
13,CGTGCATC,-0.077
14,GAAGATCC,-0.273
15,AGGACAGG,-0.11
16,CAAAAATG,-0.0709
17,AAAGGTTG,-0.256
18,CCTGACGC,-0.347
19,AACTATGG,-0.138
20,GCTAGGCC,-0.286
21,AGTATTAT,-0.0313
22,AGAACTTC,-0.0685
23,CTATTTGA,-0.103
24,TAATGTCA,-0.164
25,GAAGATAC,0.0367

row,Sequence,PBM E-score
1,CCCACCCA,-0.0953
2,AACTAGGA,-0.225
3,AGATTGTC,-0.00514
4,GGAGTCAA,-0.104
5,ACCAGAGA,-0.103
6,GGCGAATA,-0.0409
7,GCACTAAA,0.177
8,GTTAACGA,0.442
9,ACTGGACG,-0.12
10,CAGCTGGA,-0.0748
11,CTATCACC,-0.0181
12,AGATCCCA,-0.235
13,AGACGCTC,-0.183
14,CTTCTTGA,-0.125
15,CTTTACAA,-0.154
16,AAATACGT,0.109
17,CTCTGCGA,0.0808
18,CTCGTTAC,0.36
19,TATGTCGA,0.143
20,AAGGCTCC,-0.189
21,CCGACCCC,-0.175
22,CTTGTCTA,-0.148
23,AACGAACG,0.419
24,AACTAGTG,-0.112
25,CGTCCGAG,0.0755

row,Sequence,PBM E-score
1,CAATCCTA,-0.0854
2,AGTCGGGG,-0.132
3,AGACCTAG,-0.0835
4,CCCCTAGC,-0.319
5,GGCACGCA,0.0534
6,ACAGTAAC,-0.124
7,ACGCGGGG,0.0304
8,CACTGCTA,0.0415
9,CGACGAGC,0.0758
10,ACTGGGGC,-0.225
11,CCTTAAGC,-0.0529
12,TCGGAGAA,-0.156
13,AGGACATG,-0.0176
14,TCGAGCAA,-0.0394
15,GGCTGACC,-0.0956
16,ATAGGCGA,0.11
17,GATAACCA,0.0331
18,AACAATCG,0.0768
19,CGGTCTAC,0.0369
20,CGTTAGTA,0.106
21,CAGCGTTA,0.0166
22,TAAATAAA,0.191
23,CGGACTTA,-0.21
24,GACAGGTC,-0.227
25,GCAGGCGA,-0.275

row,Sequence,PBM E-score
1,CATCTACC,-0.0585
2,ATAGTGCG,0.0754
3,AACACGGA,-0.0612
4,ACTAAGTA,-0.101
5,AAGGGCGC,-0.0994
6,CCGGCCAC,-0.272
7,AGGTATGC,-0.00888
8,CAATTCCG,-0.254
9,GACAGACC,0.043
10,AACAGACA,-0.101
11,AGATGCAA,-0.149
12,AACAGCAG,-0.0476
13,ATGCGCTC,-0.014
14,ACACCTTA,0.00147
15,TGATTCCA,-0.175
16,ACATAAGA,0.0979
17,ATTGTCGA,-0.197
18,AATGCAGG,-0.141
19,CACATGTC,-0.0847
